Measured values taken from PubChem BioAssay (NCATS).
Some of the results follow. The main result of the screen is listed elsewhere. These columns were measured beside it and carry no call. Compounds called inactive in the main read-out are mostly missing here. The note in brackets gives the kind of curve behind each potency; many fits are weak.

Target: Catechol O-methyltransferase (Homo sapiens) (UniProt P21964)
Assay: Confirmatory Screen for Target Class Profiling of Small Molecule Inhibitors of Methyltransferases (AID 1745852);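 also: inhibitor potency for blocking SAH production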
Settings: MTase-Glo luminescence, SAH detection, recombinant enzyme; measured here: COMT inhibition potency
Tags tell the direction and shape of the fitted curve.

Chain of UniProt P21964 (P21964 whole entry, looked up): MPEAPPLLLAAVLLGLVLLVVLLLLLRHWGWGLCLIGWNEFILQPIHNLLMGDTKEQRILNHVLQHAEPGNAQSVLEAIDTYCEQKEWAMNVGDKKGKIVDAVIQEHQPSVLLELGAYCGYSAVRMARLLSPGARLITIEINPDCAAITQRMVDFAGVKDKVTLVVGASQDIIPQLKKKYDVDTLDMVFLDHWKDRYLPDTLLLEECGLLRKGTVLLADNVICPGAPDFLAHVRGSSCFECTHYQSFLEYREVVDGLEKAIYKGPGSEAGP

SMILES	IC50
COc1cc2c(cc1O)CC[C@H]1[C@@H]2CC[C@]2(C)[C@H](O)CC[C@@H]12	12.1 µM [falling, partial curve]
O=C(CCc1ccccc1)c1c(O)c([C@@H]2O[C@H](CO)[C@@H](O)[C@H](O)[C@H]2O)c(O)c([C@@H]2O[C@H](CO)[C@@H](O)[C@H](O)[C@H]2O)c1O	1.43 µM [falling, full curve]
C=C1C(=O)OC[C@@H]1C/C=C(\C)CC1CC(C)C(=O)O1 (some centres not stated)	3.41 µM [falling, full curve]
CC1=CCC(O)C2(C)CCC3C(C)C(=O)OC3C12 (configuration not stated)	15.2 µM [falling, partial curve]
COc1ccc(CC(NC(C)=O)C(=O)O)cc1 (configuration not stated)	13.6 µM [falling, partial curve]
COCc1c(O)c(C(=O)O)c(C)c2c1OC(=O)c1c(C)cc(O)c(CO)c1O2	5.3 µM [falling, full curve]
C=C1C(=O)O[C@@H]2/C=C(\CO)CC/C=C(/C=O)C[C@H](O)[C@@H]12	1.36 µM [falling, full curve]
OC[C@H]1O[C@@H](OCCc2ccccc2)[C@H](O[C@@H]2OC[C@@H](O)[C@H](O)[C@H]2O)[C@@H](O)[C@@H]1O	3.73 µM [falling, full curve]
O=C(O[C@@H]1O[C@H](CO)[C@@H](O)[C@H](O)[C@H]1O)c1c(O)cc(O)cc1/C=C/c1ccccc1	2.1 µM [falling, full curve]
CC1(C)CC[C@]2(C(=O)O)CC[C@]3(C)C(=CCC4[C@@]5(C)C[C@@H](O)[C@H](O)C(CO)(CO)C5CC[C@]43C)C2[C@@H]1O (some centres not stated)	8.35 µM [falling, partial curve]
CC(C)(O)/C=C1/C(=O)C(C)(C)C(=O)C(C)(C)C1(O)O[C@@H]1O[C@H](COC(=O)c2cc(O)c(O)c(O)c2)[C@@H](O)[C@H](O)[C@H]1O (some centres not stated)	0.285 µM [falling, full curve]
O=C(/C=C/c1ccccc1)OC[C@]12O[C@H]1[C@@H](O)[C@@H]1C=CO[C@@H](O[C@@H]3O[C@H](CO)[C@@H](O)[C@H](O)[C@H]3O)[C@@H]12	7.44 µM [falling, partial curve]
COc1ccc(CCNC(=O)c2ccc(CN3C(=O)CCn4nccc43)cc2)cc1OC	21.5 µM [falling, partial curve, poor fit]
C=C[C@H]1[C@H](O[C@@H]2O[C@H](CO)[C@@H](O)[C@H](O)[C@H]2O)OC=C(C(=O)OC)[C@H]1CCO	4.72 µM [falling, full curve]
CC1=CC(=O)CC(C)(C)C1CCC(C)OC1OC(COC(=O)c2cc(O)c(O)c(O)c2)C(O)C(O)C1O (configuration not stated)	0.527 µM [falling, full curve]
C=C1C(=O)O[C@@H]2C=C(COC(C)=O)CC/C=C(\CO)CC[C@@H]12	3.75 µM [falling, full curve]
COc1cc(O)c(C(=O)CCc2ccc(O)cc2)c(O[C@@H]2O[C@H](CO)[C@@H](O)[C@H](O)[C@H]2O)c1	3.73 µM [falling, full curve]
